Where “and” joins values, the source holds several entries; their conditions need not be identical. Identical values can stand only once. Hit rate of the full screen: of about 220,000 compounds, about 5,700 (2.6%) were called active. Inconclusive means that the source gave no clear call. Such entries were picked first, then a sample of the others. Calls come from the whole dose curve; as a rule, active = well fitted inhibition curve with a large enough effect; inconclusive = small, poorly fitted or top-dose-only effect; inactive = no such curve, though single readings can be large or run the other way. A potency beside an inconclusive call is a rough fit, not a confirmed value.
These compounds were tested against Lysine-specific demethylase 5B (Homo sapiens) (UniProt Q9UGL1) (assay: Primary screen for KDM5B Histone Demethylases FDH-coupled qHTS). Conditions: FDH-coupled NADH fluorescence (FDH is formaldehyde dehydrogenase); activity change, negative = inhibition: at 57.7 µM (top of the series) unless noted.
Chain of UniProt Q9UGL1 (Q9UGL1 whole entry, looked up): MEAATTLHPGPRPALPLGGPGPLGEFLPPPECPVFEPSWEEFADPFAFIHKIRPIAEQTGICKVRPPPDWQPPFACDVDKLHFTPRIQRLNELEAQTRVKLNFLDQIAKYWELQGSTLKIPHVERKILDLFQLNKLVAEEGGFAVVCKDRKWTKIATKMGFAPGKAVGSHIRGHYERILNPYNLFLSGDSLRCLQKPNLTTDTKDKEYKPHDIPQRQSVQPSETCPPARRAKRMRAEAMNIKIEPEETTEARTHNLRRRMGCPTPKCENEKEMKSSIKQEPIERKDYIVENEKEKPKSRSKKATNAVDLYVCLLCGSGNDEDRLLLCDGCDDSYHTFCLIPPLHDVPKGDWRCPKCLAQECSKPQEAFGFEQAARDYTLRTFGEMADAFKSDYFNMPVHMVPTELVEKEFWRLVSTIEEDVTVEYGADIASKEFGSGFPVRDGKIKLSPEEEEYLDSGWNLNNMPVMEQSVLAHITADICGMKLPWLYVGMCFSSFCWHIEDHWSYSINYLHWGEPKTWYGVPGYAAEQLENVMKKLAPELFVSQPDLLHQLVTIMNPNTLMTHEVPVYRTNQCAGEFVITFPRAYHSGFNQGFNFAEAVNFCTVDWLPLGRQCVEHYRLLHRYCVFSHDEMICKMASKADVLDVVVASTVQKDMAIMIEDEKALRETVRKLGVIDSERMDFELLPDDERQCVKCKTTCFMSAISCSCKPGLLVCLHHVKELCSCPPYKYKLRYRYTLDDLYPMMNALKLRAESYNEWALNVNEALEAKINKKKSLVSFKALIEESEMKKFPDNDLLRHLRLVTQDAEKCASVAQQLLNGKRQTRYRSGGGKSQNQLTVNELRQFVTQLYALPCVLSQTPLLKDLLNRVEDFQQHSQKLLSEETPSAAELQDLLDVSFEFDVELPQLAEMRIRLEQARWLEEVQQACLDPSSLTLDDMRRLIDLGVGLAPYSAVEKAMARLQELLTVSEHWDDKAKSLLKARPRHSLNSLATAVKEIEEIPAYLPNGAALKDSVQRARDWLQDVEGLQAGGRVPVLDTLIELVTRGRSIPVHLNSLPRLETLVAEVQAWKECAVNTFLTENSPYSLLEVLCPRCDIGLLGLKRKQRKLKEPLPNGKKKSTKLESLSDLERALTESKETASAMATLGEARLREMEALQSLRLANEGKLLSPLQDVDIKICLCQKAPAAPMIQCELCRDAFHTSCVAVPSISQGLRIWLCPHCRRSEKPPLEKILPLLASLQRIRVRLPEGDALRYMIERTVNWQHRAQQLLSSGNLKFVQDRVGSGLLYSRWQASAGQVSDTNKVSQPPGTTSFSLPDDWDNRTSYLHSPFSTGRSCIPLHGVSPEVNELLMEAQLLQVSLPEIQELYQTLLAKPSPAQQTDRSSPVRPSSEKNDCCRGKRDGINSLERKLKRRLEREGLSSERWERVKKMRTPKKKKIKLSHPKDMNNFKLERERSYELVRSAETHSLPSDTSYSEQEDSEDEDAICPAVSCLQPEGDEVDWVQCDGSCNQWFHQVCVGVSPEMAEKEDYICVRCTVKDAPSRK
Procedure, shortened: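 Here, H3K4me3 peptide (12.5 µM in substrate mix) is demethylated by KDM5BΔAP, 200 nM final, after 10 min compound exposure. Formaldehyde product is coupled through FDH (0.25 U/mL in mix) to NADH fluorescence; 30-min ΔRFU feeds dose-response curves.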
Note: nearly all actives have a fitted effect of over 70% in size.
Potency is the fitted concentration of half-maximal effect; tags give direction and shape of the fitted curve.
Throughout, for activity change, negative = inhibition: 0% is about no effect.

| SMILES | activity change, negative = inhibition | Potency |
| --- | --- | --- |
| Cc1nc(CCC(=O)N2CCc3c(nc(-c4ccccc4)[nH]c3=O)C2)n[nH]1 | inactive: -12.5% |  |
| COc1ccc(N2C(=O)CSC23CCN(C(=O)CC(C)C)CC3)cc1 |  | inconclusive: 31.6 µM [inhibitor, single point] |
| O=C(c1nn(Cc2ccccc2)c(=O)c2ccccc12)N1CCN(c2ccccc2O)CC1 | inactive: 0.222% |  |
| CN(C)CC1(O)CCC2(CCN(C(=O)c3[nH]nc4c3COc3ccccc3-4)CC2)CC1 |  | inconclusive: 14.1 µM [inhibitor, partial curve, poor fit] |
| O=C1NCCCCCCN(Cc2ccncc2)[C@@H]2CN(C(=O)C3(c4ccccc4)CC3)CC[C@@H]12 |  | inconclusive: 39.8 µM [inhibitor, single point] |
| O=C(NCCc1ccncc1)C1CN(Cc2cccnc2)CC12CCOCC2 (stereo not given) |  | inconclusive: 25.1 µM [inhibitor, single point] |
| C=C(Br)CNC(=O)Nc1cccc(COC)c1 | inactive: 19.5% |  |
| CC1=C[C@@H](CN2CCN(c3cnccn3)CC2)[C@H](C(C)C)C[C@H]1Cc1nnc(-c2ccc([N+](=O)[O-])cc2)o1 |  | inconclusive: 25.1 µM [inhibitor, single point] |
| CCCCN1C(=O)C2(/C(=C(\O)c3ccc(OC)c(C)c3)C(=O)C(=O)N2CCOC)c2ccccc21 (stereo not given) | inactive: 5.01% |  |
| CCCCNC(=O)c1cc(-c2ccc(C)o2)nc2ccccc12 |  | inconclusive: 28.2 µM [inhibitor, partial curve, poor fit] |
| COCCNC(=O)CCCN1C(=O)COc2ccc(C(=O)COc3ccc(C)cc3C)cc21 | inactive: -10.7% |  |
| O=c1c2nc(-c3cccc(C(F)(F)F)c3)ccc2ncn1Cc1ccccn1 |  | inconclusive: 35.5 µM [inhibitor, single point] |
| O=c1cnc2ccccc2n1Cc1ccc(Br)cc1 |  | inconclusive: 39.8 µM [inhibitor, partial curve, poor fit] |
| CCOc1ccccc1CNC(=O)CCC(=O)N1CCSc2ccccc21 |  | inconclusive: 15.8 µM [inhibitor, partial curve, poor fit] |
| O=C(CCSc1ccc(Cl)cc1)Oc1ccc2ccc(=O)oc2c1 |  | inconclusive: 22.4 µM [inhibitor, partial curve, poor fit] |
| O=c1c2c(CO)c(-c3ccccc3)nn2ccn1Cc1ccc(Br)cc1 |  | inconclusive: 39.8 µM [inhibitor, partial curve, poor fit] |
| Cc1ccc(Cc2nc3ccccc3nc2SCC(=O)N2CCNC2=O)cc1 | inactive: 3.45% |  |
| CC1(C)CC(NC(=S)Nc2ccc(Br)cc2)CC(C)(C)N1 |  | inconclusive: 31.6 µM [inhibitor, single point] |
| COc1ccc(Br)cc1CNC(=O)c1ccc2nc(C(C)C)oc2c1 |  | inconclusive: 12.6 µM [inhibitor, partial curve, poor fit] |
| COc1ccc(OC)c(NC(=O)c2cc(-c3cc(C)c(C)cc3O)n[nH]2)c1 |  | inconclusive: 28.2 µM [inhibitor, partial curve, poor fit] |
| Cc1ccc(NC(=O)c2ccc3c(c2)N(C)C2CCCN2C3=O)cc1 (stereo not given) |  | inconclusive: 20 µM [inhibitor, partial curve, poor fit] |
| Cc1ccc(-c2nc(C#N)c(NCC(c3cccs3)N(C)C)o2)cc1 (stereo not given) |  | inconclusive: 1.78 µM [inhibitor, partial curve, poor fit] |

| SMILES | activity change, negative = inhibition | Potency |
| --- | --- | --- |
| O=c1c2c(CO)c(-c3ccccc3)nn2ccn1CCc1ccccc1 | inactive: -21.5% |  |
| COc1ccc(N(Cc2cccs2)C(=O)COc2cccc(C)c2C)cc1 |  | inconclusive: 2 µM [inhibitor, full curve, poor fit] |
| CCCNc1c(NC(=O)c2cc(OC)cc(OC)c2)c(=O)oc2ccccc12 | inactive: 12.6% |  |
| O=C(c1cncc(N2CCC3(CCCNC3=O)C2)n1)N1CCOCC1 (stereo not given) |  | inconclusive: 20 µM [inhibitor, single point] |
| O=C(NCC(F)F)c1cc(Br)cn2ccnc12 |  | active: 35.5 µM and active: 39.8 µM |
| CCN1CCN(c2ncc3c(n2)CCN(CC(C)C)C3)CC1 |  | inconclusive: 35.5 µM [inhibitor, single point] |
| COc1ccc(C(=O)C(C)Oc2ccccc2Cl)cc1 (stereo not given) | inactive: 10.8% |  |
| CSc1ccc(NC(=O)C2CCN(c3ncccn3)CC2)cc1 |  | inconclusive: 3.55 µM [inhibitor, partial curve, poor fit] |
| CC(C)Sc1ccc(C(=O)NCC(O)c2ccccc2)cc1 (stereo not given) | inactive: 9.42% |  |
| COc1ccc(-c2cc(N3CCC(NC(=O)c4ccccc4Br)C3)n[nH]2)cc1 (stereo not given) |  | inconclusive: 10 µM [inhibitor, partial curve] |
| COc1ccc2[nH]c(C(=O)Nc3ncc(C)cc3Br)cc2c1 |  | inconclusive: 28.2 µM [inhibitor, single point] |
| CCOC(=O)N1CCc2c(sc(NCc3cccc(F)c3)c2C(=O)Nc2ccc(OC)cc2)C1 |  | inconclusive: 25.1 µM [inhibitor, partial curve, poor fit] |
| COC(=O)CC1Oc2ccc(F)cc2-n2cc(-c3ccc(C)cc3)nc21 (stereo not given) |  | inconclusive: 25.1 µM [inhibitor, single point] |
| COc1cccc(CN2CCN(Cc3ncccc3C)CC2)c1O | inactive: -54.2% |  |
| Cc1cc(-c2ccc(C)c(S(=O)(=O)Nc3ccccn3)c2)on1 |  | inconclusive: 6.31 µM [inhibitor, partial curve, poor fit] |
| Cc1ccc(CC(=O)Nc2cnc3ccccc3c2)cc1 | inactive: 3.9% |  |
| COc1ccc(-c2cc(=O)c3c(ccc4ccccc43)o2)cc1 |  | inconclusive: 1.78 µM [inhibitor, partial curve, poor fit] |
| C#CC1(O)CC(C)N(C)CC1C (stereo not given) | inactive: -4.73% |  |
| COc1ccc(C(=O)Nc2ccc(-c3noc([C@@H]4CCCN4Cc4ccc(C(F)(F)F)cc4)n3)cn2)cc1 |  | active: 28.2 µM |
| N=C1C(c2nc3ccccc3s2)=C(O)CN1C1CCC(O)CC1 (stereo not given) |  | inconclusive: 39.8 µM [inhibitor, partial curve, poor fit] |
| COc1ccccc1-c1nc(C#N)c(N2CCN(Cc3ccccc3)CC2)o1 |  | inconclusive: 25.1 µM [inhibitor, partial curve, poor fit] |
| COc1ccccc1CNc1nc(-c2ccco2)nn1S(C)(=O)=O |  | inconclusive: 28.2 µM [inhibitor, partial curve, poor fit] |

| SMILES | activity change, negative = inhibition | Potency |
| --- | --- | --- |
| CC(C)N1CCN(C2CCN(c3ccc4c(c3)CCC4)CC2)CC1CCO (stereo not given) |  | inconclusive: 15.8 µM [inhibitor, partial curve] |
| COC(=O)[C@@H]1Cc2ncn(Cc3ccc(OC)cc3)c2CN1S(=O)(=O)c1ccccc1 |  | inconclusive: 31.6 µM [inhibitor, partial curve] |
| Cc1ccc(S(=O)(=O)c2nc(-c3cccs3)oc2SCC(=O)Nc2cc(C)cc(C)c2)cc1 |  | inconclusive: 25.1 µM [inhibitor, partial curve, poor fit] |
| CC1=C[C@@H](CN2CCN(CCO)CC2)[C@H](C(C)C)C[C@H]1Cc1nnc(-c2ccc([N+](=O)[O-])cc2)o1 |  | inconclusive: 28.2 µM [inhibitor, partial curve, poor fit] |
| Cc1cc(C[C@@H]2COC[C@@H]2NC(=O)COc2cccc(C)c2C)on1 |  | active: 20 µM |
| Cn1c(=O)c2c(nc(NCc3ccc4c(c3)OCO4)n2Cc2cccc(F)c2)n(C)c1=O | inactive: -8.49% |  |
| CCNc1nc(NCC)nc(N/N=C/c2ccc(O)c(OC)c2)n1 |  | inconclusive: 25.1 µM [inhibitor, partial curve, poor fit] |
| CNC(=O)c1noc([C@@H]2CC(F)(F)CN2Cc2cccn2C)n1 |  | inconclusive: 11.2 µM [inhibitor, partial curve] |
| Cc1cccc(Nc2nc(-c3ccc(C)cc3C)cs2)c1 | inactive: -20.3% |  |
| CC(=O)Nc1ccc(NC(=O)C(C)C)cc1Cl | inactive: 20.6% |  |
| O=C1COCC2(CN(c3ccc(C(F)(F)F)cn3)C2)CN1c1ccc(F)cc1 |  | inconclusive: 35.5 µM [inhibitor, partial curve, poor fit] |
| Cc1ccc(Nc2c3c(nc4nc(-c5cccs5)nn24)CCCC3)cc1F | inactive: -21.8% |  |
| Cc1oc(-c2ccc(Cl)cc2)nc1CS(=O)CC(=O)NCCc1ccccc1 (stereo not given) |  | inconclusive: 35.5 µM [inhibitor, single point] |
| C#CCOc1c(Cl)cc(/C=C2/C(=O)ON=C2C)cc1OC |  | inconclusive: 12.6 µM [inhibitor, partial curve, poor fit] |
| COCCN(Cc1cnc(-c2cccc(C)c2)nc1)Cc1cccs1 |  | inconclusive: 12.6 µM [inhibitor, partial curve, poor fit] |
| Cn1nccc1C(=O)N1CC(c2ncc3c(-c4cccc(C(F)(F)F)c4)nccn23)C1 |  | inconclusive: 35.5 µM [inhibitor, single point] |
| COc1cccc(C2/C(=C(/O)c3ccccc3)C(=O)C(=O)N2Cc2ccco2)c1 (stereo not given) |  | inconclusive: 28.2 µM [inhibitor, partial curve, poor fit] |
| Cc1ccc(C)c(Cn2c(=O)cc(C(F)(F)F)c3c(C)nn(C)c32)c1 |  | inconclusive: 14.1 µM [inhibitor, partial curve, poor fit] |
| COc1ccc2oc(-c3ccc(NC(=O)c4ccccc4)cc3)nc2c1 |  | inconclusive: 1.78 µM [inhibitor, full curve, poor fit] |
| COc1ccc(CC(=O)Nc2cc(Cl)ccc2N2CCCC2)cc1 |  | inconclusive: 25.1 µM [inhibitor, partial curve, poor fit] |
| COc1ccc(-c2cc3ccc(O)cc3oc2=O)c(OC)c1 |  | inconclusive: 31.6 µM [inhibitor, partial curve, poor fit] |
